Assay [1] has as its target T1, human Claudin18.2 (human, UniProt P56856-2 1-261).
T1 construct: whole, on cells; expressed on Dubca, HEK293T, PANC1 cells by lentiviral transduction; endogenous on NUGC4 and KATOIII cells; also called huCLDN18.2; CLDN18.2
The assay is described as follows: flow cytometry, PANC1.huCLDN18.2.Luc cells (Example 7). The procedure:
(§1) Briefly, 5.0×10⁵ PANC1.huCLDN18.1.Luc or PANC1.huCLDN18.2.Luc cells in DPBS (pH7.2) were incubated with serially diluted anti-Claudin18.2 VHH-hIgG1Fc at 4° C. for 45 min, followed by wash-centrifugation-supernatant depletion-cell washing cycles for 3 times with DPBS. After wash, cell pellets were re-suspended in DPBS and incubated with a secondary antibody (1:200, Alexa Fluor™ 488 GOAT anti-human IgG (H+L) Antibody, Invitrogen, Cat. No. A1 1013) at 4° C. for 30 min in dark. The cells were then subject to wash-centrifugation-supernatant depletion-cell washing cycles for 3 times with DPBS. The cells were then run on Attune NXT flow cytometry to detect antibody-PANC1.huCLDN18.1.Luc or PANC1.huCLDN18.2.Luc binding level. Binding capabilities of each test antibody were described as Percentage of Binding, calculated with (cells with antibody binding/total cells)× 100 %.
(§2) Coding sequence of selected clones of humanized single domain antibody were codon optimized for human codon biased expression with GenScript OptimumGene™-Codon Optimization. The resulting coding DNA fragments were synthesized and fused to nucleotides nucleotide coding human IgG1 Fc portion (SEQ ID NO:76), for transient expression in chimeric formats. […] The humanized chimeric anti-Claudin18.2 antibodies were obtained using the mothed described in Example 2. The binding capacity of humanized chimeric antibodies to PANC1.huCLDN18.1.Luc or PANC1.huCLDN18.2.Luc cells were measured.

Assay [2] addresses T2, human Claudin18.1 (human, UniProt P56856 1-261).
T2 construct: whole, on cells; expressed on PANC1 cells (PANC1.huCLDN18.1.Luc); also called huCLDN18.1; CLDN18.1
The assay is described as follows: flow cytometry on PANC1.huCLDN18.1.Luc cells, Binding %. The procedure:
as §1, §2

Assay [3] concerns the target T1, human Claudin18.2. The experiment in a line: flow cytometry, PANC1.huCLDN18.2.Luc cells, at 10 nM. The procedure: as §1
In assay [4] the target is T2, human Claudin18.1. The assay is described as follows: flow cytometry on PANC1.huCLDN18.1.Luc cells, Binding %. The procedure: as §1
The source holds these as a separate data set.

For assay [5], the target named is T1, human Claudin18.2. The assay is described as follows: flow cytometry, PANC1.huCLDN18.2.Luc cells, percentage of binding. The procedure: as §1

Read-outs that look alike come from different tables or passages of the source.

B1: VHH182513H4-hIgG1Fc (Fc fusion)
chain: QVQLVESGGGVVQPGRSLRLSCAASGYRSSVCMGWFRQAPGKGLERVAVIGRDGSTTYIDSVKGRFTISRDSAKNTLYLQMNSLRAEDTAMYYCAAGLGYWACEYNYWGQGTLVTVSS[in this place human IgG1 Fc]
notes: humanized VHH fused to human IgG1 Fc
In turn, B1 showed an EC50 with human Claudin18.2 [1] of 14.1 nM. Besides, the binding result with human Claudin18.1 [2] is on record as “no binding (tested: about 3000 nM)”.

B2: VHH182502-hIgG1Fc (Fc fusion)
chain: EVQLVESGGGSVQPGGSLSLSCAASGDTFRAKCMAWFRQGPGKEREVVATIQSGYYRPYYTDSVKGRFTISQDADKNRVYLQMDSLKPEDTAMYYCAADRFTYPPGVICGGISENYRYWGQGTRVTVSS[in this place human IgG1 Fc]
notes: chimeric antibody: camelid VHH fused to human IgG1 Fc
As for B2, the maximum binding% in the assay with human Claudin18.2 [3] is around 100%. Also, the binding result with human Claudin18.1 [4] is listed as “no binding (tested: about 300 nM)”. In the assay with human Claudin18.2 [5], this molecule returned a half-maximal effective concentration (EC50) of 2.82 nM.

B3: VHH182504-hIgG1Fc (Fc fusion)
chain: EVQLVESGGGSVQAGGSLRLSCEVTSYTVRLYCMGWFRQDSEKAREGVAAIDYYGSTTYADSVKGRFTISRDNAKNTLYLQMNSLKPEDSAVYYCASRRTSWCSVSFNGYDDWGQGTQVTVSS[in this place human IgG1 Fc]
notes: as for B2
B3 registered a maximum binding% in the assay with human Claudin18.2 [3] of around 100%. Also, in the assay with human Claudin18.1 [4], the binding result is “no binding (tested: about 300 nM)”. Further, the EC50 in the assay with human Claudin18.2 [5] turned out to be 3.65 nM.

B4: VHH182503-hIgG1Fc (Fc fusion)
chain: EVQLVESGGGSVQAGGSLRLSCVASGTIYSAYYMGWFRQPPGKEHEGVATVIPGGTQTYYADSVKGRFTMSRDNAKNTVYLQMNSLKPEDTGMYYCAATYLVGSAPLSPSRFRYWGQGTQVTVSS[in this place human IgG1 Fc]
notes: as for B2
As to B4, in the assay with human Claudin18.2 [3], the maximum binding% was around 100%. Moreover, the binding result in the assay with human Claudin18.1 [4] was “no binding (tested: about 300 nM)”. The molecule further registered an EC50 in the assay with human Claudin18.2 [5] of 2.16 nM.

B5: VHH182506-hIgG1Fc (Fc fusion)
chain: QVHLVESGGGSVQAGGSLTLSCVVSGAEYYSGDMNWYRQAPGKEREFVSGINRAGNTNYAASVKGRFSISRDSARTTGYLQMNSLKSEDTAMYYCQGTYCRMALFGACNDYWGQGTQVTVSS[in this place human IgG1 Fc]
notes: as for B2
As for B5, the maximum binding% with human Claudin18.2 [3] was around 100%. For the same molecule, the binding result with human Claudin18.1 [4] is reported as “no binding (tested: about 300 nM)”. The half-maximal effective concentration (EC50) with human Claudin18.2 [5] is 3.92 nM.

B6: 175DX-hIgG1Fc (Fc fusion)
chain: DIVMTQSPSSLTVTAGEKVTMSCKSSQSLLNSGNQKNYLTWYQQKPGQPPKLLIYWASTRESGVPDRFTGSGSGTDFTLTISSVQAEDLAVYYCQNDYSYPFTFGSGTKLEIKGSTSGSGKPGSGEGSTKGQVQLQQPGAELVRPGASVKLSCKASGYTFTSYWINWVKQRPGQGLEWIGNIYPSDSYTNYNQKFKDKATLTVDKSSSTAYMQLSSPTSEDSAVYYCTRSWRGNSFDYWGQGTTLTVSS[in this place human IgG1 Fc]
notes: scFv of IMAB362 (zolbetuximab) fused to human IgG1 Fc; also called benchmark; control antibody
As for B6, the EC50 with human Claudin18.2 [1] is 49.2 nM; with human Claudin18.2 [5] it was 13.5 nM.

B7: VHH182511-hIgG1Fc (Fc fusion)
chain: QVQLDESGGGSVQAGGSLRLSCAASRSTYCMGWFRQAPGKLRERVANVYMRNGDTWLADSVKGRFTISRDNAKNAVYLQMTRLRPEDTAMYYCAAGRSSCLEASISYWGQGTQVTVSS[in this place human IgG1 Fc]
notes: as for B2
In the assay with human Claudin18.2 [3], B7 showed a maximum binding% of around 100%. Moreover, the EC50 in the assay with human Claudin18.2 [1] was 0.328 nM; with human Claudin18.2 [5], 1.61 nM. In addition, the binding result with human Claudin18.1 [4] is listed as “no binding (tested: about 1000 nM)”.

B8: VHH182511H6-hIgG1Fc (Fc fusion)
chain: QVQLDESGGGLVQPGGSLRLSCAASRSTYCMGWFRQAPGKGLERVANVYMRNGDTWLADSVKGRFTISRDNSKNTLYLQMTSLRAEDTAVYYCAAGRSSCLEASISYWGQGTLVTVSS[in this place human IgG1 Fc]
notes: as for B1
In turn, B8 came in with an EC50 with human Claudin18.2 [1] of 0.83 nM. In addition, the binding result in the assay with human Claudin18.1 [2] was “no binding (tested: about 100 nM)”.

B9: VHH182510-hIgG1Fc (Fc fusion)
chain: QVRLVESGGGSVQVGGSLRLSCAASGYRSSVCMGWFRQAPGKERERVAVIGRDGSTTYIDSVKGRFTISRDSAKNTLSLQMDNLKPEDTAMYSCAAGLGYWACEYDYSGQGTQVTVSS[in this place human IgG1 Fc]
notes: as for B2
As for B9, in the assay with human Claudin18.2 [3], the maximum binding% is around 100%. Further, the binding result with human Claudin18.1 [4] is “no binding (tested: about 1000 nM)”. The 50% effective concentration (EC50) in the assay with human Claudin18.2 [5] is 3.24 nM.

B10: VHH182513-hIgG1Fc (Fc fusion)
chain: QVQLEESGGGSVQVGGSLRLSCAASGYRSSVCMGWFRQAPGKERERVAVIGRDGSTTYIDSVKGRFTISRDSAKNTLSLQMDNLKPEDTAMYSCAAGLGYWACEYNYWGQGTQVTVSS[in this place human IgG1 Fc]
notes: as for B2
With B10, the maximum binding% with human Claudin18.2 [3] was around 100%. The concentration giving a half-maximal response (EC50) in the assay with human Claudin18.2 [1] amounted to 5.73 nM; with human Claudin18.2 [5] it was 6.13 nM. Moreover, the binding result with human Claudin18.1 [4] is given as “no binding (tested: about 1000 nM)”.

B11: VHH182505-hIgG1Fc (Fc fusion)
chain: QVQLVESGGGSVQVGGSLRLSCAASGYRASVCMGWFRQAPGKERERVALIGRTGSTTYIDSVKGRFTISRDSAKNTLSLQMDNLKPEDTAMYSCAAGLGYWDCDYNYWGQGTQVTVSS[in this place human IgG1 Fc]
notes: as for B2
Take B11: the maximum binding% with human Claudin18.2 [3] is around 100%. The binding result in the assay with human Claudin18.1 [4] is “no binding (tested: about 300 nM)”. The EC50 with human Claudin18.2 [5] is 3.45 nM.

B12: VHH182508-hIgG1Fc (Fc fusion)
chain: EVQLAESGGGSVQAGGSLRLSCAASRYISSSYCMSWFRQAPGKEREGVAAISTRGGSTYYVDSVKGRFTIFQGNAGATVYLQMNSLKPEDTAMYYCAAAEGLCGWGGWESAVRFGSWGQGTQVTVSS[in this place human IgG1 Fc]
notes: as for B2
Consider B12, for which, in the assay with human Claudin18.2 [3], the maximum binding% was around 100%. For the same molecule, the binding result with human Claudin18.1 [4] was “no binding (tested: about 300 nM)”. This molecule also displayed an EC50 with human Claudin18.2 [5] of 1.7 nM.

B13: VHH182507-hIgG1Fc (Fc fusion)
chain: QVQLAESGGGSVQAGGSLKLICTASRATDCNYMSWHRQAPGKEREFVSRIFPSGKTTYADSMKARFSISQDNAKNSVYLLMVNLKPEDTGKYYCQGSCRGPGSIWPSDYWGQGTQVTVSS[in this place human IgG1 Fc]
notes: as for B2
Turning to B13, the maximum binding% in the assay with human Claudin18.2 [3] is around 100%. Also, the binding result with human Claudin18.1 [4] is recorded as “no binding (tested: about 300 nM)”. Also, the half-maximal effective concentration (EC50) with human Claudin18.2 [5] came out at 3.96 nM.

B14: VHH182501-hIgG1Fc (Fc fusion)
chain: EVQLVESGGGSVQAGGSLRLSCAASGYTTSRYGMTWYRQAPAKEREFVSSISISGSTEYADSVKGRFTISHDNVKKTVYLQMNSLKPEDTAMYYCSFYNAYTQYWGQGTQVTVSS[in this place human IgG1 Fc]
notes: as for B2
The molecule B14 gave a maximum binding% with human Claudin18.2 [3] of around 100%. In addition, in the assay with human Claudin18.1 [4], the binding result is listed as “no binding (tested: about 300 nM)”. The EC50 with human Claudin18.2 [5] was found to be 2.33 nM.

B15: VHH182509-hIgG1Fc (Fc fusion)
chain: EVQLAESGGGSVQAGGSLRLSCAASGYITSRYGMTWYRQAPAKEREFVSSISLSGSTEYADSVKGRFTISHDNVKKTVYLQMNSLKPEDTAMYYCSFYNAYGQYWGQGIQVTVSS[in this place human IgG1 Fc]
notes: as for B2
B15 registered a maximum binding% with human Claudin18.2 [3] of around 100%. Moreover, the binding result with human Claudin18.1 [4] is “no binding (tested: about 1000 nM)”. Further, the EC50 with human Claudin18.2 [5] is 1.67 nM.
